Assay results as given in PMC7819943, “Rice protein-binding microarrays: a tool to detect cis-acting elements near promoter regions in rice”.
The list shows a part of the results.

These sequences were tested against T1, OsWOX13 (Oryza sativa, UniProt Q5QMM3 1-267) (assay: protein-binding microarray (RPBM); PBS, 2% BSA, 51.3 ng/ul salmon testes DNA, 50 uM zinc acetate, 200 nM TF, 25 C, 1 h; high values mean tight binding). Settings: protein: recombinant; tags: N-terminal polyhistidine and DsRed monomer fusion (pET32a); label: CyDye5-dUTP incorporated in the synthesized complementary strand; 3' TTTTT single-stranded linker to array surface; dsDNA, one strand shown.
T1 sequence: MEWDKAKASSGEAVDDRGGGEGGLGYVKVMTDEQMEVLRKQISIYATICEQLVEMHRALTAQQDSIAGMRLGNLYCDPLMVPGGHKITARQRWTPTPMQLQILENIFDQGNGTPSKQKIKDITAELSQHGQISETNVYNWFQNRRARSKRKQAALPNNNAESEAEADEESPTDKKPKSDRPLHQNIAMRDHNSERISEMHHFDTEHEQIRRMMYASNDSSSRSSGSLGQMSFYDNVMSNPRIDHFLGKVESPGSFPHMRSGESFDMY
How it was run: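 The binding signal for each feature is its fluorescence intensity in arbitrary units. An Axon 4000B scanner was used to read a custom Agilent array that had been made double-stranded with Cy5-dUTP primer extension, blocked with 2% BSA, incubated at 25 °C for 1 h with 200 nM protein in PBS, 2% BSA, salmon testes DNA and 50 µM zinc acetate, and washed. The protein was an N-terminal polyhistidine–DsRed transcription factor fusion from E. coli BL21-CodonPlus, purified on Ni–NTA.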

Sequence	binding signal
GTAAATAGATACAAATATATATATTTATCTATTAGTTTATCGGAGTCACCTAGTGCAG	5870 fluorescence intensity (a.u.)
TAATTAGTCCATGATTAGCCATAAGTGTTATAGTAACTCACGGAGTCACCTAGTGCAG	4330 fluorescence intensity (a.u.)
CCGGAGGCATGATTTTGTTAAACAGGAGAGTTGAACGATGCGGAGTCACCTAGTGCAG	5120 fluorescence intensity (a.u.)
AGGCAAATTGAAACCGAAGTATTAGTCCTTCACGCCAAAGCGGAGTCACCTAGTGCAG	21000 fluorescence intensity (a.u.)
GGTAACTGACGAGATTTGCATCCTTATTTCTAGCTAGTCCCGGAGTCACCTAGTGCAG	25200 fluorescence intensity (a.u.)
CAGACTGACAAGTGACAAGCAGAGGGCATCTCAGTACGCGCGGAGTCACCTAGTGCAG	3390 fluorescence intensity (a.u.)
GAAAATTGCAATCTAGTACTCCCAACGTTCCAGAATATAACGGAGTCACCTAGTGCAG	9350 fluorescence intensity (a.u.)
TCGGTCTGCAAACAAATTGATTGATTTGTTTTCCTTTTGCCGGAGTCACCTAGTGCAG	47100 fluorescence intensity (a.u.)
ATAGTGATTTTAAGCCGATGATGACTATAGGGCTTACCGACGGAGTCACCTAGTGCAG	3680 fluorescence intensity (a.u.)
CATTGGATTGGATGATCCATCTTGCAGGCCTGTGGCATGGCGGAGTCACCTAGTGCAG	8190 fluorescence intensity (a.u.)
TCAACTACTTATATTAATTAACGTCATTTTGTCAACGTTTCGGAGTCACCTAGTGCAG	3160 fluorescence intensity (a.u.)
CAATGCTAAAATTTTGACAAATTAGTAATATTACTAAAATCGGAGTCACCTAGTGCAG	3810 fluorescence intensity (a.u.)
TCTAAAATTTGGCTTGATAATTGGAGGCATCCAGATAGATCGGAGTCACCTAGTGCAG	15900 fluorescence intensity (a.u.)
AAATTAGATAGGATATTTTCTAGTACTACAAATATGGACACGGAGTCACCTAGTGCAG	8260 fluorescence intensity (a.u.)
ATATTTGACAAATAATTAAATACCCCTCCAAAGCTGATGACGGAGTCACCTAGTGCAG	7640 fluorescence intensity (a.u.)
TAATAAATATTTGATTATAGATAATTCTCACCAATAATCCCGGAGTCACCTAGTGCAG	6210 fluorescence intensity (a.u.)
CTGTTCCTAAATTACAATGTATTTAGAAGTTTCACTACTACGGAGTCACCTAGTGCAG	3540 fluorescence intensity (a.u.)
AAGTTCAAATTTTGAATTTCAATTATGGCTGATAAGCTACCGGAGTCACCTAGTGCAG	6990 fluorescence intensity (a.u.)
CAAAATTATGTGACACTTACATATAAGTTACACTGTAGTTCGGAGTCACCTAGTGCAG	6290 fluorescence intensity (a.u.)
CTCTGATTAGCCTTCTTTTCTAAAGATCATGTGATTTCAACGGAGTCACCTAGTGCAG	13000 fluorescence intensity (a.u.)
TATATATATATATATATATATATATATATATATATACACACGGAGTCACCTAGTGCAG	10800 fluorescence intensity (a.u.)

Sequence	binding signal
CCTGATTTCGCACATCATCAAGACATCTTTGCCGTGATACCGGAGTCACCTAGTGCAG	15400 fluorescence intensity (a.u.)
TTGGCAATTGTAATTGAGCGTCATGGCTGACGAATTTCTTCGGAGTCACCTAGTGCAG	8520 fluorescence intensity (a.u.)
AAAGTTAATTTATTTTGAGACAGATATACTACATATCACACGGAGTCACCTAGTGCAG	29100 fluorescence intensity (a.u.)
CTAATTACATGTAATAAACTTACCGTTCATAACATTTACACGGAGTCACCTAGTGCAG	17300 fluorescence intensity (a.u.)
AAACAATTACGTCTGCTTGACAGATCAGAAGATTCTAACGCGGAGTCACCTAGTGCAG	21800 fluorescence intensity (a.u.)
GCATGACAAATGGCGTTAATTAGTCCACAAATAATATATACGGAGTCACCTAGTGCAG	3210 fluorescence intensity (a.u.)
ATTTCCCTTCCCTTTCTTTCTTTCTTTCTTTCTTTCTTTCCGGAGTCACCTAGTGCAG	6080 fluorescence intensity (a.u.)
AAACGATCAATTAATTAATTGATTATCCGCGCGCGCGCGGCGGAGTCACCTAGTGCAG	26530 ± 63.6 fluorescence intensity (a.u.)
CAGTCGGTTGATTTGATCATGGGTACCATGACTCTGCCCCCGGAGTCACCTAGTGCAG	14900 fluorescence intensity (a.u.)
GCTGATGATGATGCAGTTCTAAGAGGAGTGCAGTTGTGAGCGGAGTCACCTAGTGCAG	3320 fluorescence intensity (a.u.)
TGTTGATTTGCTACCCTTCCTTCCGTCCTCAACATTATCACGGAGTCACCTAGTGCAG	31600 fluorescence intensity (a.u.)
ATTAACTATTAGATTGGCTATATATGAATTAGAGTTAGCACGGAGTCACCTAGTGCAG	30500 fluorescence intensity (a.u.)
TTTATGTCTAATTAAATTATCCTGTTTCGGAGGTGATTAACGGAGTCACCTAGTGCAG	17500 fluorescence intensity (a.u.)
TTTGAGCCTAATTAAGCTGTCATTAGCACATATGGGTTACCGGAGTCACCTAGTGCAG	10300 fluorescence intensity (a.u.)
CTTCTGTTTACTAATTGGATTCTCTGTGTGAACTCTTACGCGGAGTCACCTAGTGCAG	13500 fluorescence intensity (a.u.)
AATATTTCCTTAATTATCATCATTATCCTAAACTAATCAACGGAGTCACCTAGTGCAG	4750 fluorescence intensity (a.u.)
ATACCATGATTTTGATAATGTGATGTTACAGTAAACTTTTCGGAGTCACCTAGTGCAG	16300 fluorescence intensity (a.u.)
TAAATTTGATTCCATTTCCGTTGCCTGTTCATTTCGTCGACGGAGTCACCTAGTGCAG	6090 fluorescence intensity (a.u.)
CATGATTACTTGGGTTATCAATATGACATTTCAAGGTGAACGGAGTCACCTAGTGCAG	33300 fluorescence intensity (a.u.)
CGAGATTGAGGTAGTAGTCCGCCGCGGATCTCAGCATATCCGGAGTCACCTAGTGCAG	5830 fluorescence intensity (a.u.)
ATGCATTATCAATCATTTGTGCTTGACGCGTCGCTGATTCCGGAGTCACCTAGTGCAG	38500 fluorescence intensity (a.u.)
